Measurements from PubChem BioAssay AID651820 (National Center for Advancing Translational Sciences (NCATS), 2012).
About 12,000 (3.5%) of roughly 340,000 compounds were called active. Inconclusive results, whose numbers are uncertain, are shown with a selection of clear calls. The call rests on the fitted dose curve; in most records, active means well fitted inhibition curve with a large enough effect; inconclusive means small, poorly fitted or top-dose-only effect, or another doubt; inactive means no such curve, though single readings can be large or run the other way. No potency is given beside an inconclusive call; the fits are too rough.

Test: qHTS Assay for Inhibitors of Hepatitis C Virus (HCV)
Conditions: Huh7.5.1 HCVcc-Cre (HCVcc is cell-culture hepatitis C virus) infection, luciferase reporter, 44 h; series mostly up to 41.8 µM
How it was run: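 Luciferase read-out (15 sec integration) after a 15 min room-temperature substrate step quantifies HCVcc-Cre infection. Cells, 1,000 per well, had compound added 4 h post-plating, then virus at ~0.5 moi, and were cultured 44 h.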
Potency means the concentration at half of the fitted maximal effect; tags describe the fitted curve by direction and shape.

Structure (SMILES)	Potency
O=C(Nc1ccc(Br)cn1)c1ccc(Cl)s1	inconclusive [inhibitor, partial curve]
COc1ccccc1CCNCc1ccc(OC)c(OCc2ccccc2)c1	active: 10 µM
O=C1CCN(Cc2ccccc2)C=C1c1cccc(O)c1	inconclusive [inhibitor, partial curve]
COc1ccc(NC(=O)c2cccc(S(=O)(=O)N3CCN(c4ccccc4)CC3)c2)c(OC)c1	inconclusive [inhibitor, partial curve]
COc1ccc2c(c1)C(c1ccc(C)o1)=NNC(c1cccnc1)=N2	inconclusive [inhibitor, single point]
CN(CC(=O)Nc1ccc(S(=O)(=O)N2CCCC2)cc1)Cc1ccc(Cl)cc1Cl	inconclusive [inhibitor, partial curve]
CCOc1c(S(=O)(=O)NC2CC(C)(C)NC(C)(C)C2)ccc(Cl)c1Cl	inconclusive [inhibitor, partial curve]
O=C(NC1CCCCC1)C(c1cccnc1)N(C(=O)CCl)c1ccc(F)cc1 (stereo not drawn)	active: 1.12 µM
CC(C)c1ccc2c(c1)[C@H]1OCC[C@H]1[C@@H](c1cccs1)N2	inconclusive [inhibitor, single point]
CN1CCN(Cc2ccc(OCc3ccccc3)cc2)CC1	active: 5.62 µM
COc1cccc(-c2nn(C)c3sc(C(=O)NCc4ccc(C)o4)cc23)c1	active: 2.82 µM
COc1ccc(Oc2c(Cl)cnn(-c3ccc(C)cc3)c2=O)cc1	inconclusive [inhibitor, single point]
Cn1nc(-c2ccccc2F)c2cc(C(=O)N3CCN(C(=O)c4ccco4)CC3)sc21	inconclusive [inhibitor, single point]
Fc1ccc(CNC(=S)Nc2ccc(OC(F)F)cc2)cc1	inconclusive [inhibitor, single point]
Cc1ccc(C(C)C)c(OCc2ccc(C(=O)N/N=C/c3ccc(O)c(O)c3)cc2)c1	inconclusive [inhibitor, partial curve]
COc1ccc(-c2cc(=O)c3c(OC)c(OC)c(OC)c(OC)c3o2)cc1	active: 10 µM
Cc1cc2cc(CNC(=O)c3ccc(S(=O)(=O)N4CCCCC4)cc3)ccc2n1C	inactive
Cn1cc(S(=O)(=O)N2CCc3ccccc3C2)c(=O)n(C)c1=O	inconclusive [inhibitor, single point]
Cc1cccc(CSc2ncnc3ccccc23)c1	inconclusive [inhibitor, single point]
COc1ccc(Cl)cc1NC(=O)COC(=O)C1=NNC(=O)CC1	inconclusive [inhibitor, single point]
O=C(NCCc1ccccc1)[C@@H]1CC=C[C@@H]2CCN(Cc3ccccc3)C(=O)[C@@H]21	inconclusive [inhibitor, partial curve]
COC(=O)C1C(=O)c2c([nH]c(C(=O)OCC3CCCO3)c2C)CC1C (stereo not drawn)	inconclusive [inhibitor, partial curve]

Structure (SMILES)	Potency
COc1cc(C2=NOC(C(=O)NCc3ccc(F)cc3)C2)cc(OC)c1OC (stereo not drawn)	inconclusive [inhibitor, full curve, poor fit]
CN1CCC(N(C)C(=S)NC(=O)C23CC4CC(CC(C4)C2)C3)CC1	inconclusive [inhibitor, full curve, poor fit]
CSCCC(NC(=O)c1ccco1)C(=O)NCC1CCCO1 (stereo not drawn)	inactive
C#CCOCCOCCOCCNc1nc(N2CCOCC2)nc(N2CCN(C(=O)CCCCCCCCCCNC(=O)[C@@H]([C@H](C)CC)n3cc(CCCCCN)nn3)CC2)n1	inconclusive [inhibitor, partial curve]
CCOc1ccccc1Nc1nc(-c2sc(NC(=O)c3ccco3)nc2C)cs1	inconclusive [inhibitor, full curve]
COc1ccc(OCc2cc(C(=O)NCC3CCOCC3)no2)c(Cl)c1	inactive
COc1cccc2cc(C(=O)N3CCCc4ccccc43)oc12	inactive
COc1ccc(/C=C/c2cc(=O)c3cc(Cl)ccc3o2)cc1	inconclusive [inhibitor, single point]
CCn1nc(C(=O)Nc2ccc(Cl)c(S(=O)(=O)N3CCOCC3)c2)c2ccccc2c1=O	active: 11.2 µM
CCc1sc(C(=O)NCCc2ccc(S(N)(=O)=O)cc2)cc1C	inconclusive [inhibitor, single point]
CCOC(=O)N1CCC(Nc2ncnc3c2cnn3-c2ccccc2)CC1	inconclusive [inhibitor, single point]
CCCCN=Cc1c(C)[nH]n(-c2ccccc2)c1=S	inactive
O=C1CCCC(O)=C1N=Nc1cccc(S(=O)(=O)N2CCOCC2)c1	inconclusive [inhibitor, single point]
Cc1ccc(CN(CC(=O)NC2CCCC2)C(=O)CSc2nnc(COc3ccccc3)o2)cc1	inconclusive [inhibitor, single point]
COc1ccccc1CCNC(=O)COc1cccc2c1OC(C)(C)C2	inconclusive [inhibitor, single point]
CCN(CC)c1ccc(-c2nnc(SCC(=O)Nc3ccccc3C#N)n2-c2ccccc2)cc1	inconclusive [inhibitor, partial curve]
N#Cc1c(SCC(=O)Nc2nc3ccc(Br)cc3s2)sc2c(O)cc(=O)[nH]c12	inactive
O=C(N/N=C/c1ccccc1)c1c(O)c2ccccc2[nH]c1=O	inconclusive [inhibitor, single point]
O=C(C[n+]1cc(-c2ccc(Br)cc2)n2c1CCCCC2)c1ccccc1	inactive
Cc1ccc(S(=O)(=O)CCC(=O)NCCN2C(=O)S/C(=C/c3ccc(F)cc3)C2=O)cc1	inconclusive [inhibitor, single point]
Cc1ccc(C(=O)N/C(=C\c2cccs2)C(=O)NCCc2c[nH]c3ccccc23)cc1	inconclusive [inhibitor, single point]
